Toxic doses and inconclusive results are not listed. Some entries of the source have several records that differ or are many. They are shown here; other results are not. The source may hold further records. Values that stand side by side are repeated measurements (runs, samples, wells, individuals or studies). Marks in square brackets tell the records apart. The letters are not those of the source and start again with each entry.
Tested on: L1210 leukemia ip in BDF1 mice, survival T/C
Test: NCI In Vivo Anticancer Drug Screen. Data for tumor model L1210 Leukemia (intraperitoneal) in B6D2F1 (BDF1) mice
Conditions: endpoint: mean survival time, higher = longer survival

CC1(C(O)CO)OCCO1 (stereo not given)
T/C (dose: 100.0 mg/kg/injection, schedule: Q04DX002 (ip), vehicle: saline): 95 % of control and 156 % of control

O=c1[nH]c2ccccc2c2cc3ccccc3cc12
T/C (dose: 200.0 mg/kg/injection, schedule: Q01DX001 (ip), vehicle: carboxymethylcellulose (CMC)): 88 % of control, 100 % of control, 162 % of control

O=C(Nc1ccc(C2=NCCCN2)cc1)c1ccc(NC(=O)c2ccc(C3=NCCCN3)cc2)cc1
T/C (dose: 10.0 mg/kg/injection, schedule: Q01DX010 (sc), vehicle: olive oil, sesame oil, peanut oil): 124 % of control and 199 % of control

NC(C/[N+]([O-])=N/O)C(=O)O (stereo not given)
T/C (dose: 800.0 mg/kg/injection, schedule: Q04DX003 (ip), vehicle: saline): 161 % of control [sample A] and 109 % of control [sample B]
T/C (dose: 1000.0 mg/kg/injection, schedule: Q04DX003 (ip), vehicle: saline): 159 % of control [sample A] and 101 % of control [sample B]

CC1(C)CN1CC1CO1 (stereo not given)
T/C (dose: 24.0 mg/kg/injection, schedule: Q01DX Z (ip), vehicle: saline): 105 % of control and 150 % of control

CC(CCC(=O)O)(NC(=O)c1ccc(NCc2ccc3nc(N)nc(N)c3c2)cc1)C(=O)O (stereo not given)
T/C (dose: 2.0 mg/kg/injection, schedule: Q01DX009 (ip), vehicle: saline): 116 % of control and 150 % of control

Cn1nc(Br)c(=O)n(C(c2ccccc2)c2ccccc2)c1=O
T/C (dose: 100.0 mg/kg/injection, schedule: Q01DX001 (ip), vehicle: other): 97 % of control, 102 % of control, 156 % of control

CCC(O)(CC)C(C)C
T/C (dose: 200.0 mg/kg/injection, schedule: Q01DX001 (ip), vehicle: saline): 96 % of control and 156 % of control

CC1CN1C(=O)Nc1cccc2c(NC(=O)N3CC3C)cccc12 (stereo not given)
T/C (dose: 42.5 mg/kg/injection, schedule: Q01DX009 (ip), vehicle: Klucel (hydroxypropylcellulose) (HPC)): 100 % of control and 153 % of control

From PubChem BioAssay AID248 (DTP/NCI, 2004)
